Binding data for 4 substances are collected here from publication PMC3407085.

One experiment has as its target GST-HIF1A (UniProt Q16665). The experiment is described as follows: pull-down; GST fusion proteins immobilised on beads; proteins captured from whole lymphoblastoid cell lysates; Western blotting; only the target purified. On the technique in general: In western blotting, separated proteins are transferred to a membrane and probed.
The target in the next experiment is GST-ARNT (UniProt P27540). Described as above.
The target in experiment [1] is T1, GST-EBNA-3 (Epstein-Barr virus) (UniProt P12977).
T1 sequence: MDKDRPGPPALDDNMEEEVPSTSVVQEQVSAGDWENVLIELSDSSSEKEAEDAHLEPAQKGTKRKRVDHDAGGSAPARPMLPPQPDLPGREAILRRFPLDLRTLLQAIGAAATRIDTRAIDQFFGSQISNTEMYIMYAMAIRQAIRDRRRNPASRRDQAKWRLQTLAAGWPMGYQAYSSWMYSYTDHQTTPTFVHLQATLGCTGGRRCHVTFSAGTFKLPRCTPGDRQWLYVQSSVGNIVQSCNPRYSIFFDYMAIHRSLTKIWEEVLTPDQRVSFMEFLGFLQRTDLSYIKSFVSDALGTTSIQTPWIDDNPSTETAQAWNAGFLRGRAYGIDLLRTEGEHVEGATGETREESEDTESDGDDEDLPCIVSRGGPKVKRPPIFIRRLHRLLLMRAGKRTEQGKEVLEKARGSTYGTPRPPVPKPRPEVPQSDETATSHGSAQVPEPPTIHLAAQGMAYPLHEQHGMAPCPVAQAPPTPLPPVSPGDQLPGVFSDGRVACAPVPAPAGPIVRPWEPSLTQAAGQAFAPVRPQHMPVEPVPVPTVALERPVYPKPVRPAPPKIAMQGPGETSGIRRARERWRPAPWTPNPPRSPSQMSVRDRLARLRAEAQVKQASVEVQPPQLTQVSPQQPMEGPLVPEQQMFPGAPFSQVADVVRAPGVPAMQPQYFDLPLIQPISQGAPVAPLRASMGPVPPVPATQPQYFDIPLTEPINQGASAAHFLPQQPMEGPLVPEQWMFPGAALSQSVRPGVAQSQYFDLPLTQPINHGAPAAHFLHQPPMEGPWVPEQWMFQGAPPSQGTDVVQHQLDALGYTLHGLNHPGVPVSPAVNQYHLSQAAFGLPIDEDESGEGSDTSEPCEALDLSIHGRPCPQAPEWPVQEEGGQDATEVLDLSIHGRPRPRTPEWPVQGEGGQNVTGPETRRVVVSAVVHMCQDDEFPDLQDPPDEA
The description is as above.

In experiment [2] the target is T2, EBNA-3 (endogenous in lymphoblastoid cells) (Epstein-Barr virus (B95.8 strain, expressed in LCLs)) (UniProt P12977).
T2 sequence: T1 sequence
The experiment can be described thus: co-IP; anti-EBNA-3 or anti-EBNA-5 antibodies coupled to CNBr-Sepharose; whole cell lysates of 10^7 lymphoblastoid cells; washed with NP40 lysis buffer and PBS; Western blotting.

Experiment [3] addresses T3, EBNA-5 (endogenous in lymphoblastoid cells) (Epstein-Barr virus (B95.8 strain, expressed in LCLs)) (UniProt Q8AZK7).
T3 sequence: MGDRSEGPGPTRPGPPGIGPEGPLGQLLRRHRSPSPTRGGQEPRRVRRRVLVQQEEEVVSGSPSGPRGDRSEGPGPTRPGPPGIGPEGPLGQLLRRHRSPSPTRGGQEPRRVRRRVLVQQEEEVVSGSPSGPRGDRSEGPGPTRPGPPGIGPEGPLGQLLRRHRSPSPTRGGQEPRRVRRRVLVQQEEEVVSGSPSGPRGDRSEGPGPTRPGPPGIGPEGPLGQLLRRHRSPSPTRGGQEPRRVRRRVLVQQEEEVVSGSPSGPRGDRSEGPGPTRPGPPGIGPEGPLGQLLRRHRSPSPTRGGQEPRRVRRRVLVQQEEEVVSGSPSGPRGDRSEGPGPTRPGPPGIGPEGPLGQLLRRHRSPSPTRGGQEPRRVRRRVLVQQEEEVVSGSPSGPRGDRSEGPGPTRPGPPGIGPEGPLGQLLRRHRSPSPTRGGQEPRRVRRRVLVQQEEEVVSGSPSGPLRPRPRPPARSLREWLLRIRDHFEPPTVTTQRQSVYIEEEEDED
The experiment is described as above.

Results are given in words; binding and its absence hold for the method and conditions named. Binding seen in cells or lysates may run through a third protein. Some results given as binding are weak or reduced against the parent protein; the word gives no strength. For part of these data: Where a sequence is shown, tags or fusion partners need not be part of it.

As to “EBNA-6 (endogenous in lymphoblastoid cells) (from UniProt P03204 1-992)”, the binding result in the experiment with GST-HIF1A and with GST-ARNT was “no binding” throughout.
For “prolylhydroxylase 2 (endogenous in lymphoblastoid cells) (from UniProt Q9GZT9-1 1-426) (enzyme)”, the binding entry in experiment [1] is “binds”.
On the same count and under the same terms, for “prolylhydroxylase 1 (endogenous in lymphoblastoid cells) (from UniProt Q96KS0-1 1-407) (enzyme)” the value was “binds weakly”.
With “HIF1A (endogenous in lymphoblastoid cells) (from UniProt Q16665-1 1-826)”, the binding entry in experiment [2] is recorded as “binds”; in experiment [3], “no binding”.
